Data on five molecules can be found in patent EP4810523A1 (Shenyang Sunshine Pharmaceutical Co., Ltd., dated 2025).

In assay [1] the target is T1, C3-his protein (Complement component 3 Protein, Human, Recombinant (His Tag), Sino Biological Inc., Cat# … (human, UniProt P01024 23-1663)).
T1 construct: Bought protein, coated on the ELISA plate; Natural C3 is processed into beta and alpha chains; also called human complement C3; complement C3; not shown: His tag
Put plainly: ELISA, C3-his coated at 1 ug/mL, anti-human IgG Fc-HRP; SD 0.018.

For assay [2], the target named is T1, C3-his protein (Complement component 3 …). Put plainly: ELISA, C3-his coated at 2 ug/mL, anti-human IgG Fc-HRP; mean of duplicates, SD 0.001. Background: In an ELISA, binding on a coated surface is turned into a signal by an enzyme label.
The target is the same in assay [3]. Put plainly: ELISA, C3-his coated, anti-human IgG Fc-HRP; SD 0.031.
For assay [4] the target is unchanged. Put plainly: ELISA, C3-his coated at 2 ug/mL, anti-human IgG Fc-HRP; mean of duplicates, SD 1.690.
For assay [5] the target is unchanged. Put plainly: ELISA, C3-his coated at 2 ug/mL, biotinylated fusion protein, HRP-streptavidin; SD 0.014.

T1 sequence (P01024 23-1663 limits assumed): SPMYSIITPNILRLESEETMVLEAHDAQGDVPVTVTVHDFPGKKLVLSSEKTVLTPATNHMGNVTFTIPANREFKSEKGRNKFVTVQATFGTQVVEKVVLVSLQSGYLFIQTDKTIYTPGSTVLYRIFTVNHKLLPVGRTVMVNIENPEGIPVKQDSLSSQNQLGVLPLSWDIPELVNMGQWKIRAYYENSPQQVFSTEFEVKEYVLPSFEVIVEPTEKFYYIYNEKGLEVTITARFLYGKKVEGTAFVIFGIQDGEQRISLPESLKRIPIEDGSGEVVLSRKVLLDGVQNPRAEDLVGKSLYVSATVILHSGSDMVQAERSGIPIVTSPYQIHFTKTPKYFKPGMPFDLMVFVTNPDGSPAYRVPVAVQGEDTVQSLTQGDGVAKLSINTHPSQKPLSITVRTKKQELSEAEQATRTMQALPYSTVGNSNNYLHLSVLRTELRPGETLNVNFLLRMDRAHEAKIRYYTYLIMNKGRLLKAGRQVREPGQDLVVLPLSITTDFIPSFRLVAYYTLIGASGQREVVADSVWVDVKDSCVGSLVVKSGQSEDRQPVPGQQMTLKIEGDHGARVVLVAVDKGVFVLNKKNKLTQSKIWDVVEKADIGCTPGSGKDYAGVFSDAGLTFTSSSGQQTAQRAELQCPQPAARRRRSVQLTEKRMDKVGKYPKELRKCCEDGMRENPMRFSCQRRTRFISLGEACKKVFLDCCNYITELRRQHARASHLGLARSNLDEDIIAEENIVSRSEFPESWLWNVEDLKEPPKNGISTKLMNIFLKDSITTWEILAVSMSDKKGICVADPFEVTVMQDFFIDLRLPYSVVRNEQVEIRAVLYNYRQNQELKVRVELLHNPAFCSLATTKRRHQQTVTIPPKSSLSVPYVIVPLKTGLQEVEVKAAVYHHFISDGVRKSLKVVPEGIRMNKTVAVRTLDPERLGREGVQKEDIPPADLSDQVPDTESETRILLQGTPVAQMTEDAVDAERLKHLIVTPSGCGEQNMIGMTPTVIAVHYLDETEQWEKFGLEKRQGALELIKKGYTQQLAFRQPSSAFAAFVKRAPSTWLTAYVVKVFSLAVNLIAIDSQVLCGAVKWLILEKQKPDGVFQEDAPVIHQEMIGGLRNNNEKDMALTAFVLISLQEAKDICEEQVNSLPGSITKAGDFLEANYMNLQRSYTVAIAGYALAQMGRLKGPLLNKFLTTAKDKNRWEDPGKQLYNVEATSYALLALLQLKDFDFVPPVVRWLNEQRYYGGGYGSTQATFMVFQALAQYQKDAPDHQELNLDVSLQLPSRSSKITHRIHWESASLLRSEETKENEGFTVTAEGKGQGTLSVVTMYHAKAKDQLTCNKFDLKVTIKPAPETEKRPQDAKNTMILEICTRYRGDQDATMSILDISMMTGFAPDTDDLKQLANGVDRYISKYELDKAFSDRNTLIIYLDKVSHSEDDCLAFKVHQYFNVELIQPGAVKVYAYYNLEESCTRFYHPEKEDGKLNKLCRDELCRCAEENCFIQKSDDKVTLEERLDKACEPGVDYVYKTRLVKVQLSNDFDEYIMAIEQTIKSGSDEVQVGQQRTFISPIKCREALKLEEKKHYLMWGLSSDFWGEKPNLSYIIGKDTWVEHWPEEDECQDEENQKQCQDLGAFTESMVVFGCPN

B1: CRIg-L(GS)-FH-FCG[…]R-M86Y (Fc fusion)
chain: [skipping about 120 residues with changes]GGGGSGGGGSGGGGSEDCNELPPRRNTEILTGSWSDQTYPEGTQAIYKCRPGYRSLGNVIMVCRKGEWVALNPLRKCQKRPCGHPGDTPFGTFTLTGGNVFEYGVKAVYTCNEGYQLLGEINYRECDTDGWTNDIPICEVVKCLPVTAPENGKIVSSAMEPDREYHFGQAVRFVCNSGYKIEGDEEMHCSDDGFWSKEKPKCVEISCKSPDVINGSPISQKIIYKENERFQYKCNMGYEYSERGDAVCTESGWRPLPSCEEKSCDNPYIPNGDYSPLRIKHRTGDEITYQCRNGFYPATRGNTAKCTSTGWIPAPRCTLKPPCPPCPAPEFLGGPSVFLFPPKPKDTLMISRTPEVTCVVVDVSQEDPEVQFNWYVDGVEVHNAKTKPREEQFNSTYRVVSVLTVLHQDWLNGKEYKCKVSNKGLPSSIEKTISKAKGQPREPQVYTLPPSQEEMTKNQVSLTCLVKGFYPSDIAVEWESNGQPENNYKTTPPVLDSDGSFFLYSRLTVDKSRWQEGNVFSCSVMHEALHNHYTQKSLSLSLGK
Turning to B1, in assay [1], the EC50 is 0.27 nM.

B2: CRIg-L-FH-FCG4 (Fc fusion)
chain: [skipping about 120 residues]SGGGGSGGGGSGGGGEDCNELPPRRNTEILTGSWSDQTYPEGTQAIYKCRPGYRSLGNVIMVCRKGEWVALNPLRKCQKRPCGHPGDTPFGTFTLTGGNVFEYGVKAVYTCNEGYQLLGEINYRECDTDGWTNDIPICEVVKCLPVTAPENGKIVSSAMEPDREYHFGQAVRFVCNSGYKIEGDEEMHCSDDGFWSKEKPKCVEISCKSPDVINGSPISQKIIYKENERFQYKCNMGYEYSERGDAVCTESGWRPLPSCEEKSCDNPYIPNGDYSPLRIKHRTGDEITYQCRNGFYPATRGNTAKCTSTGWIPAPRCTLKPPCPPCPAPEFLGGPSVFLFPPKPKDTLMISRTPEVTCVVVDVSQEDPEVQFNWYVDGVEVHNAKTKPREEQFNSTYRVVSVLTVLHQDWLNGKEYKCKVSNKGLPSSIEKTISKAKGQPREPQVYTLPPSQEEMTKNQVSLTCLVKGFYPSDIAVEWESNGQPENNYKTTPPVLDSDGSFFLYSRLTVDKSRWQEGNVFSCSVMHEALHNHYTQKSLSLSLGK
B2: in assay [2], the EC50 came to 0.275 nM.

B3: CRIg-FH-FCG[…]R-M86Y (Fc fusion)
chain: [skipping about 120 residues with changes]EDCNELPPRRNTEILTGSWSDQTYPEGTQAIYKCRPGYRSLGNVIMVCRKGEWVALNPLRKCQKRPCGHPGDTPFGTFTLTGGNVFEYGVKAVYTCNEGYQLLGEINYRECDTDGWTNDIPICEVVKCLPVTAPENGKIVSSAMEPDREYHFGQAVRFVCNSGYKIEGDEEMHCSDDGFWSKEKPKCVEISCKSPDVINGSPISQKIIYKENERFQYKCNMGYEYSERGDAVCTESGWRPLPSCEEKSCDNPYIPNGDYSPLRIKHRTGDEITYQCRNGFYPATRGNTAKCTSTGWIPAPRCTLKPPCPPCPAPEFLGGPSVFLFPPKPKDTLMISRTPEVTCVVVDVSQEDPEVQFNWYVDGVEVHNAKTKPREEQFNSTYRVVSVLTVLHQDWLNGKEYKCKVSNKGLPSSIEKTISKAKGQPREPQVYTLPPSQEEMTKNQVSLTCLVKGFYPSDIAVEWESNGQPENNYKTTPPVLDSDGSFFLYSRLTVDKSRWQEGNVFSCSVMHEALHNHYTQKSLSLSLGK
With B3, the EC50 in assay [3] is 0.259 nM.

B4: CRIg-FCG4 (Fc fusion)
chain: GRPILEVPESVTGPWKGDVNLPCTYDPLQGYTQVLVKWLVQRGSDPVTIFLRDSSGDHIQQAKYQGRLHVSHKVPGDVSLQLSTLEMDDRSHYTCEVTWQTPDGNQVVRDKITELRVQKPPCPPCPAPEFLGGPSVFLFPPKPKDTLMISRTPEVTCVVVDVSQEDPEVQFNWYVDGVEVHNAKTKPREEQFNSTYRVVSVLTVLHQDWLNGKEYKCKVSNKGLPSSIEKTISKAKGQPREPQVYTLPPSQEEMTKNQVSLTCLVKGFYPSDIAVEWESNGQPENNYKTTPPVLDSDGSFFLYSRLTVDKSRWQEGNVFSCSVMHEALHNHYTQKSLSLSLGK
In the case of B4, the EC50 in assay [4] was 24.5 nM.

B5: CRIg-L(GS)-FH-FCG4-YTE-M86Y (Fc fusion)
chain: [skipping about 120 residues]GGGGSGGGGSGGGGSEDCNELPPRRNTEILTGSWSDQTYPEGTQAIYKCRPGYRSLGNVIMVCRKGEWVALNPLRKCQKRPCGHPGDTPFGTFTLTGGNVFEYGVKAVYTCNEGYQLLGEINYRECDTDGWTNDIPICEVVKCLPVTAPENGKIVSSAMEPDREYHFGQAVRFVCNSGYKIEGDEEMHCSDDGFWSKEKPKCVEISCKSPDVINGSPISQKIIYKENERFQYKCNMGYEYSERGDAVCTESGWRPLPSCEEKSCDNPYIPNGDYSPLRIKHRTGDEITYQCRNGFYPATRGNTAKCTSTGWIPAPRCTLKPPCPPCPAPEFLGGPSVFLFPPKPKDTLYITREPEVTCVVVDVSQEDPEVQFNWYVDGVEVHNAKTKPREEQFNSTYRVVSVLTVLHQDWLNGKEYKCKVSNKGLPSSIEKTISKAKGQPREPQVYTLPPSQEEMTKNQVSLTCLVKGFYPSDIAVEWESNGQPENNYKTTPPVLDSDGSFFLYSRLTVDKSRWQEGNVFSCSVMHEALHNHYTQKSLSLSLGK
notes: unlabelled in the other assays; also called biotin-CRIg-L(GS)-FH-FCG4-YTE-M86Y
With B5, in assay [5], the EC50 came out at 0.093 nM.

In general, EC50 refers to the concentration giving half of the maximal effect.
